The source gives many values for each of these; only a part stands here.
Key:
Test in all cases: concentration in plasma after dosing
[1] = tested on: Rat; conditions: dosed: Methyleugenol, 150 mg/kg, oral, Male, F344/N
[2] = tested on: Rat; conditions: dosed: Methyleugenol, 150 mg/kg, oral, Male, F344
[3] = tested on: Rat; conditions: dosed: Methyleugenol, 150 mg/kg, oral, Male, F344; remark: listed apart in the source
[4] = tested on: Rat; conditions: dosed: Methyleugenol, 37 mg/kg, oral, Female, F344/N
[5] = tested on: Rat; conditions: dosed: Methyleugenol, 75 mg/kg, oral, Male, F344/N
[6] = tested on: Rat; conditions: dosed: Methyleugenol, 75 mg/kg, oral, Female, F344/N
[7] = tested on: Rat; conditions: dosed: Methyleugenol, 75 mg/kg, oral, Female, F344/N; remark: listed apart in the source
[8] = tested on: Rat; conditions: dosed: Methyleugenol, 75 mg/kg, oral, Male, F344
[9] = tested on: Rat; conditions: dosed: Methyleugenol, 37 mg/kg, oral, Female, F344/N; remark: listed apart in the source
[10] = tested on: Rat; conditions: dosed: Methyleugenol, 75 mg/kg, oral, Male, F344; remark: listed apart in the source
[11] = tested on: Rat; conditions: dosed: Methyleugenol, 75 mg/kg, oral, Male, F344/N; remark: listed apart in the source
[12] = tested on: Rat; conditions: dosed: Methyleugenol, 75 mg/kg, oral, Male, F344/N; remark: listed apart in the source
[13] = tested on: Rat; conditions: dosed: Methyleugenol, 150 mg/kg, oral, Male, F344/N; remark: listed apart in the source
[14] = tested on: Rat; conditions: dosed: Methyleugenol, 37 mg/kg, oral, Male, F344
[15] = tested on: Rat; conditions: dosed: Methyleugenol, 75 mg/kg, oral, Female, F344
[16] = tested on: Rat; conditions: 5 min; dosed: Methyleugenol; 37 mg/kg; oral; Male; F344
[17] = tested on: Rat; conditions: dosed: Methyleugenol, 75 mg/kg, oral, Female, F344/N; remark: listed apart in the source
[18] = tested on: Rat; conditions: 0.25 h; dosed: Methyleugenol; 37 mg/kg; oral; Male; F344
[19] = tested on: Rat; conditions: dosed: Methyleugenol, 150 mg/kg, oral, Female, F344/N
[20] = tested on: Rat; conditions: dosed: Methyleugenol, 75 mg/kg, oral, Male, F344/N; remark: listed apart in the source
[21] = tested on: Rat; conditions: dosed: Methyleugenol, 150 mg/kg, oral, Female, F344/N; remark: listed apart in the source
[22] = tested on: Rat; conditions: dosed: Methyleugenol, 75 mg/kg, oral, Male, F344/N; remark: listed apart in the source
[23] = tested on: Rat; conditions: dosed: Methyleugenol, 75 mg/kg, oral, Female, F344; remark: listed apart in the source
[24] = tested on: Rat; conditions: dosed: Methyleugenol, 75 mg/kg, oral, Female, F344/N; remark: listed apart in the source
[25] = tested on: Rat; conditions: 5 min; dosed: Methyleugenol; 37 mg/kg; oral; Female; F344
[26] = tested on: Rat; conditions: dosed: Methyleugenol, 75 mg/kg, oral, Male, F344/N; remark: listed apart in the source
[27] = tested on: Rat; conditions: dosed: Methyleugenol, 150 mg/kg, oral, Female, F344
[28] = tested on: Rat; conditions: dosed: Methyleugenol, 75 mg/kg, oral, Male, F344/N; remark: listed apart in the source
[29] = tested on: Rat; conditions: dosed: Methyleugenol, 150 mg/kg, oral, Male, F344/N; remark: listed apart in the source
[30] = tested on: Rat; conditions: 1.5 h; dosed: Methyleugenol; 37 mg/kg; oral; Female; F344/N
[31] = tested on: Rat; conditions: dosed: Methyleugenol, 75 mg/kg, oral, Male, F344; remark: listed apart in the source
[32] = tested on: Rat; conditions: 0.5 h; dosed: Methyleugenol; 37 mg/kg; oral; Female; F344
[33] = tested on: Rat; conditions: dosed: Methyleugenol, 150 mg/kg, oral, Male, F344/N; remark: listed apart in the source
[34] = tested on: Rat; conditions: 5 min; dosed: Methyleugenol; 37 mg/kg; oral; Female; F344; remark: listed apart in the source
[35] = tested on: Rat; conditions: 5 min; dosed: Methyleugenol; 75 mg/kg; oral; Female; F344
[36] = tested on: Rat; conditions: dosed: Methyleugenol, 75 mg/kg, oral, Male, F344; remark: listed apart in the source

SMILES: C=CCc1ccc(OC)c(OC)c1 [Methyleugenol]
- concentration in plasma ([1]; 1.5 h): 549 ng/mL
- concentration in plasma ([1]; 3 h): 952 ng/mL
- concentration in plasma ([2]; 1 h): 1320 ng/mL
- concentration in plasma ([2]; 2 h): 623 ng/mL
- concentration in plasma ([3]; 0.5 h): 2730 ng/mL
- concentration in plasma ([3]; 1.5 h): 1080 ng/mL
- concentration in plasma ([4]; 1 h): 43.8 ng/mL
- concentration in plasma ([4]; 3 h): 20.7 ng/mL
- concentration in plasma ([5]; 5 min): 126 ng/mL
- concentration in plasma ([5]; 5 h): 114 ng/mL
- concentration in plasma ([6]; 20 min): 426 ng/mL
- concentration in plasma ([6]; 4 h): 79.2 ng/mL
- concentration in plasma ([7]; 10 min): 814 ng/mL
- concentration in plasma ([7]; 2 h): 38 ng/mL
- concentration in plasma ([8]; 1 h): 600 ng/mL
- concentration in plasma ([8]; 2 h): 327 ng/mL
- concentration in plasma ([9]; 1.5 h): 32.8 ng/mL
- concentration in plasma ([9]; 3 h): 25.4 ng/mL
- concentration in plasma ([10]; 5 min): 1880 ng/mL
- concentration in plasma ([10]; 6 h): 64 ng/mL
- concentration in plasma ([11]; 1.5 h): 262 ng/mL
- concentration in plasma ([11]; 4 h): 220 ng/mL
- concentration in plasma ([12]; 1.5 h): 130 ng/mL
- concentration in plasma ([12]; 8 h): 53.8 ng/mL
- concentration in plasma ([13]; 0.25 h): 4150 ng/mL
- concentration in plasma ([13]; 5 h): 877 ng/mL
- concentration in plasma ([14]; 1 h): 160 ng/mL
- concentration in plasma ([14]; 2 h): 50 ng/mL
- concentration in plasma ([15]; 1 h): 993 ng/mL
- concentration in plasma ([15]; 2 h): 284 ng/mL
- concentration in plasma [16]: 820 ng/mL
- concentration in plasma ([17]; 1.5 h): 235 ng/mL
- concentration in plasma ([17]; 8 h): 20 ng/mL
- concentration in plasma [18]: 469 ng/mL
- concentration in plasma ([19]; 1.5 h): 1140 ng/mL
- concentration in plasma ([19]; 8 h): 147 ng/mL
- concentration in plasma ([20]; 20 min): 193 ng/mL
- concentration in plasma ([20]; 2 h): 112 ng/mL
- concentration in plasma ([21]; 1 h): 631 ng/mL
- concentration in plasma ([21]; 24 h): 6.28 ng/mL
- concentration in plasma ([22]; 2 min): 337 ng/mL
- concentration in plasma ([22]; 5 h): 167 ng/mL
- concentration in plasma ([23]; 0.5 h): 1480 ng/mL
- concentration in plasma ([23]; 1.5 h): 318 ng/mL
- concentration in plasma ([24]; 10 min): 1030 ng/mL
- concentration in plasma ([24]; 4 h): 87.3 ng/mL
- concentration in plasma [25]: 578 ng/mL
- concentration in plasma ([26]; 10 min): 669 ng/mL
- concentration in plasma ([26]; 3 h): 93.5 ng/mL
- concentration in plasma ([27]; 0.25 h): 3570 ng/mL
- concentration in plasma ([27]; 4 h): 454 ng/mL
- concentration in plasma ([28]; 0.5 h): 766 ng/mL
- concentration in plasma ([28]; 6 h): 185 ng/mL
- concentration in plasma ([29]; 10 min): 1520 ng/mL
- concentration in plasma ([29]; 6 h): 989 ng/mL
- concentration in plasma [30]: 69.4 ng/mL
- concentration in plasma ([31]; 0.5 h): 859 ng/mL
- concentration in plasma ([31]; 1.5 h): 844 ng/mL
- concentration in plasma [32]: 100 ng/mL
- concentration in plasma ([33]; 1 h): 299 ng/mL
- concentration in plasma ([33]; 4 h): 774 ng/mL
- concentration in plasma [34]: 1370 ng/mL
- concentration in plasma [35]: 2760 ng/mL
- concentration in plasma ([36]; 0.25 h): 1850 ng/mL
- concentration in plasma ([36]; 4 h): 80 ng/mL

— EPA's CvTdb concentration-time database
